# In PubChem BioAssay AID1458 (National Center for Advancing Translational Sciences (NCATS), 2008):
# Screen size: about 210,000 compounds; about 5,900 (2.8%) were called active. Inconclusive means that the source gave no clear call. Such entries were picked first, then a sample of the others. Calls come from the whole dose curve; as a rule, active = well fitted activation curve with a large enough effect; inconclusive = small, poorly fitted or top-dose-only effect; inactive = no such curve, though single readings can be large or run the other way. Potencies of inconclusive entries are doubtful fits and often do not repeat.
# Experiment: qHTS Assay for Enhancers of SMN2 Splice Variant Expression; note: nearly all actives have a fitted effect of over 55% in size; for activity change, positive = activation: % of control where 0% means no effect
# Settings: HEK293 SMN2-luciferase splicing reporter, luminescence, 30-36 h; activity change, positive = activation: at 46.1 µM (top of the series)
# How it was run: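 HEK293 cells carry an SMN2 […]–luciferase reporter in which exon 7 inclusion puts luciferase in frame. Cells were plated 10-12 h before compound addition, then incubated 30-36 h at 37C. ONE-Glo luminescence was read; sodium butyrate at 4.5 mM final served as control.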
# Potency is the fitted concentration of half-maximal effect; tags give direction and shape of the fitted curve.
Structure (SMILES),Potency,"activity change, positive = activation"
COc1ccc(NC(C)C(=O)N/N=C/c2ccccc2OCc2ccc(Br)cc2)cc1 (configuration not stated),"inconclusive: 0.0045 µM [activator, full curve, poor fit]",–
Cc1csc(N/N=C\c2cccnc2)n1,"inconclusive: 11.2 µM [activator, partial curve, poor fit]",–
CCOc1ccc(/C=N/n2cnnc2)cc1,"inconclusive: 0.0112 µM [activator, full curve, poor fit]",–
COc1ccc(-c2csc(NC(=O)c3ccoc3C)n2)cc1,–,inactive: 13.8%
CCOC(=O)c1ccc(NC(=O)C23CCC(C)(C(=O)O2)C3(C)C)cc1 (configuration not stated),"inconclusive: 22.4 µM [activator, partial curve, poor fit]",–
CCCOC(=O)c1sc2nc3c(cc2c1N)C(=O)CCC3,"inconclusive: 35.5 µM [activator, partial curve, poor fit]",–
CCC(=O)Nc1cccc(C(=O)c2ccccc2)c1,–,inactive: 3.07%
CCc1ccc2nc(NC(=O)CSCc3c(C)noc3C)sc2c1,"inconclusive: 35.5 µM [activator, single point]",–
NC1=NC(S)C2N=CN=C2N1 (configuration not stated),–,inactive: -48%
O=C(CSc1nnc(NC(=O)c2ccco2)s1)Nc1ccccc1,"inconclusive: 31.6 µM [activator, single point]",–
O=C(c1ccc2c(c1)N(Cc1cccc(Cl)c1)C(=O)c1ccccc1S2(=O)=O)N1CCN(c2ccccn2)CC1,"inconclusive: 35.5 µM [activator, single point]",–
Cc1nc2nc(-c3ccccc3)[nH]n2c(=O)c1C,"inconclusive: 35.5 µM [activator, partial curve, poor fit]",–
O=C(/C=C/Nc1cccc(F)c1)c1ccco1,active: 12.6 µM,–
Cc1c(C(=O)N2CCN(CCc3ccccc3)CC2)oc2ccccc12,"inconclusive: 0.112 µM [activator, partial curve, poor fit]",–
Cc1sc2nc(CSc3nc4ccccc4c(=O)n3CCCN3CCOCC3)[nH]c(=O)c2c1C,"inconclusive: 35.5 µM [activator, partial curve, poor fit]",–
COc1ncc2nc(CCc3ccccc3)c(=O)n(C)c2n1,active: 14.1 µM,–
CC1(C)CN(c2ccc(-c3ccnc4ncnn34)cc2)C1=O,"inconclusive: 12.6 µM [activator, single point]",–
Cc1cc(C)c2c(n1)nn1c(N3CCN(c4ccccn4)CC3)cc(C)nc21,"inconclusive: 35.5 µM [activator, partial curve, poor fit]",–
COC(=O)c1ccc(NC(=O)Nc2ccccc2F)cc1,active: 2.51 µM,–
Cc1ccc(NC(=O)c2ccc(OCC3CCCO3)cc2)c(C)c1 (configuration not stated),"inconclusive: 11.2 µM [activator, single point]",–
COc1ccc(CC(C(=O)Nc2cc(C)ccc2C)/C(N)=N/O)cc1 (configuration not stated),"inconclusive: 22.4 µM [activator, partial curve, poor fit]",–
Cc1ccc(-c2nc3ccccn3c2Nc2ccc3c(c2)OCCO3)o1,–,inactive: 3.93%
COc1ccccc1N1CCN(C(=O)CCn2c(=O)[nH]c3ccccc3c2=O)CC1,–,inactive: 17.1%

Structure (SMILES),Potency,"activity change, positive = activation"
CCCC[C@@H]1C[C@H]1[C@@H](NP(=O)(c1ccccc1)c1ccccc1)c1ccccc1OC,–,inactive: -5.29%
c1ccc2c(c1)CC/C2=N/Nc1nc2ccccc2[nH]1,active: 11.2 µM,–
CCOC(=O)N/N=C(\C)c1ccc(C)c([N+](=O)[O-])c1,"inconclusive: 7.08 µM [activator, partial curve]",–
CC(c1ccccc1)N(CC(=O)NC1CCCCC1)S(=O)(=O)c1cccc(C(F)(F)F)c1 (configuration not stated),"inconclusive: 4.47 µM [activator, single point]",–
COc1ccc(C2C3=C(CC(C)(C)CC3=O)OC(N)=C2[N+](=O)[O-])cc1 (configuration not stated),"inconclusive: 1 µM [activator, full curve, poor fit]",–
CCCCOc1ncnc2c1[nH]c1ccc(OC)cc12,"inconclusive: 2.24 µM [activator, full curve, poor fit]",–
Cc1cc(/C=C2/NC(=O)NC2=O)c(C)n1-c1ccccn1,"inconclusive: 25.1 µM [activator, single point]",–
Cc1ccc(S(=O)(=O)CC(=O)Nc2ccc(Cl)cn2)cc1,"inconclusive: 2.51 µM [activator, partial curve, poor fit]",–
COC(=O)CN1C(=O)C(C)=C(c2ccc(C)cc2)S1(=O)=O,"inconclusive: 35.5 µM [activator, single point]",–
Cc1cccc(-n2ccnc2SCC(=O)Nc2ccc3c(c2)OCCO3)c1,"inconclusive: 6.31 µM [activator, single point]",–
Cc1ccc(NC2=C/C(=N/S(=O)(=O)c3cccs3)c3ccccc3C2=O)cc1C,"inconclusive: 1.41 µM [activator, full curve, poor fit]",–
COCCNC(=O)c1nn(-c2cc(OC)cc(OC)c2)c(=O)c2ccccc12,"inconclusive: 0.0126 µM [activator, full curve, poor fit]",–
Cc1nn(-c2ccc(F)cc2)c2sc(C(=O)N3CCCCCC3)cc12,"inconclusive: 5.62 µM [activator, full curve, poor fit]",–
O=C1C2ON(c3ccc(Cl)cc3)C(c3ccco3)C2C(=O)N1c1ccccc1 (configuration not stated),"inconclusive: 10 µM [activator, partial curve, poor fit]",–
CCOc1ccc(CCNS(=O)(=O)c2cnc[nH]2)cc1OCC,"inconclusive: 0.0251 µM [activator, full curve, poor fit]",–
COC(=O)c1ccc(-c2ccc(/C=N/N3C(=O)C4C5C=CC(CC5)C4C3=O)o2)cc1 (configuration not stated),active: 5.01 µM,–
Cc1cccc(NC(=O)NNC(=O)c2nn(C)cc2Br)c1,"inconclusive: 0.316 µM [activator, full curve, poor fit]",–
CCCc1cc(=O)n2c(nc3ccccc32)[nH]1,"inconclusive: 35.5 µM [activator, single point]",–
O=c1[nH]c(-c2ccco2)nc2sc3c(c12)CCCC3,active: 1 µM,–
CCN1C(=S)SC(=O)C1=C1C=C(C)N(CCOC)C(C)=C1,"inconclusive: 20 µM [activator, single point]",–
C#CCSc1nnc(-c2ccc(O)cc2)o1,"inconclusive: 20 µM [activator, single point]",–
CC(C)C[C@H](N)CSSC[C@@H](N)CC(C)C,"inconclusive: 25.1 µM [activator, single point]",–
CCOc1ccccc1NC(=O)N1CCc2cc(S(=O)(=O)N3CCC(C)CC3)ccc21,–,inactive: 5.97%

Structure (SMILES),Potency,"activity change, positive = activation"
CS(=O)(=O)Nc1ccc(OCc2ccccc2)cc1,"inconclusive: 11.2 µM [activator, partial curve]",–
COC(=O)c1cccc(NC(=O)C(C)N2C(=O)c3ccccc3C2=O)c1 (configuration not stated),"inconclusive: 0.0089 µM [activator, full curve, poor fit]",–
COc1ccc(CCC(=O)NCc2ccco2)cc1,"inconclusive: 5.62 µM [activator, single point]",–
CCCSc1nnc2c(n1)OC(c1sccc1C)Nc1ccccc1-2 (configuration not stated),active: 3.16 µM,–
O=C(NC1CCCCC1)N(CCO)Cc1cc2cc3c(cc2[nH]c1=O)OCCO3,"inconclusive: 15.8 µM [activator, single point]",–
O=C(NCCOc1ccccc1F)Nc1ccc(Br)cc1,"inconclusive: 3.16 µM [activator, single point]",–
CCOC(=O)c1ccc([N+](=O)[O-])cc1NC(C)=O,"inconclusive: 0.891 µM [activator, full curve, poor fit]",–
Cc1onc(-c2ccccc2)c1C(=O)N1CCCN(C(=O)c2c(-c3ccccc3)noc2C)CC1,"inconclusive: 35.5 µM [activator, partial curve, poor fit]",–
COCCN(C(=O)CCl)C(C(=O)NC1CCCCC1)c1ccccc1C (configuration not stated),"inconclusive: 0.501 µM [activator, single point]",–
CCOc1ccc(-c2n[nH]c(=S)o2)cc1,–,inactive: 17.3%
CCCCCCCC1CC(CSC(=N)N)OC1=O (configuration not stated),"inconclusive: 22.4 µM [activator, partial curve, poor fit]",–
COc1ccc(C(=O)NC(=O)N2CCCCC2)cc1,"inconclusive: 1.58 µM [activator, full curve, poor fit]",–
COC(=O)[C@@H]1C(c2c(OC)cc(OC)cc2OC)=NO[C@H]1C(=O)OC,"inconclusive: 31.6 µM [activator, single point]",–
Clc1cccc(Cl)c1Cn1ccc(C2CC2)n1,"inconclusive: 11.2 µM [activator, single point]",–
CC(=O)c1ccc(Nc2nc(=O)c3cccnc3s2)cc1,"inconclusive: 31.6 µM [activator, partial curve, poor fit]",–
Fc1cccc2sc(N3CCCCC3)nc12,"inconclusive: 12.6 µM [activator, partial curve]",–
O=C(COc1cccc2cccnc12)Nc1ccccc1,"inconclusive: 20 µM [activator, single point]",–
COC(=O)C1C2C=CC3(CN(CCc4ccccc4)C(=O)C13)O2 (configuration not stated),"inconclusive: 0.501 µM [activator, full curve, poor fit]",–
CCC(=O)Nc1ccc2c(c1)nc1n2CCN(C2CCCCC2)C1,"inconclusive: 20 µM [activator, single point]",–
Cc1ccc(C(=O)COC(=O)c2cc(Cl)nc3ccccc23)cc1,–,inactive: 1.25%
CS(=O)(=O)N(CC(=O)O)c1ccc(Oc2ccccc2)cc1,"inconclusive: 0.126 µM [activator, full curve, poor fit]",–
